The values that follow come from paper PMC4336329 (PLoS ONE, 2015).

SMILES strings stand for the structures. Among all 310,000 compounds or so, about 2,200 (0.71%) showed an effect of 50% or more. Effects have a minus sign here. This is one part of the list.

Chain of human ether-à-go-go-related gene (hERG) potassium channel (Q12809 whole entry, looked up): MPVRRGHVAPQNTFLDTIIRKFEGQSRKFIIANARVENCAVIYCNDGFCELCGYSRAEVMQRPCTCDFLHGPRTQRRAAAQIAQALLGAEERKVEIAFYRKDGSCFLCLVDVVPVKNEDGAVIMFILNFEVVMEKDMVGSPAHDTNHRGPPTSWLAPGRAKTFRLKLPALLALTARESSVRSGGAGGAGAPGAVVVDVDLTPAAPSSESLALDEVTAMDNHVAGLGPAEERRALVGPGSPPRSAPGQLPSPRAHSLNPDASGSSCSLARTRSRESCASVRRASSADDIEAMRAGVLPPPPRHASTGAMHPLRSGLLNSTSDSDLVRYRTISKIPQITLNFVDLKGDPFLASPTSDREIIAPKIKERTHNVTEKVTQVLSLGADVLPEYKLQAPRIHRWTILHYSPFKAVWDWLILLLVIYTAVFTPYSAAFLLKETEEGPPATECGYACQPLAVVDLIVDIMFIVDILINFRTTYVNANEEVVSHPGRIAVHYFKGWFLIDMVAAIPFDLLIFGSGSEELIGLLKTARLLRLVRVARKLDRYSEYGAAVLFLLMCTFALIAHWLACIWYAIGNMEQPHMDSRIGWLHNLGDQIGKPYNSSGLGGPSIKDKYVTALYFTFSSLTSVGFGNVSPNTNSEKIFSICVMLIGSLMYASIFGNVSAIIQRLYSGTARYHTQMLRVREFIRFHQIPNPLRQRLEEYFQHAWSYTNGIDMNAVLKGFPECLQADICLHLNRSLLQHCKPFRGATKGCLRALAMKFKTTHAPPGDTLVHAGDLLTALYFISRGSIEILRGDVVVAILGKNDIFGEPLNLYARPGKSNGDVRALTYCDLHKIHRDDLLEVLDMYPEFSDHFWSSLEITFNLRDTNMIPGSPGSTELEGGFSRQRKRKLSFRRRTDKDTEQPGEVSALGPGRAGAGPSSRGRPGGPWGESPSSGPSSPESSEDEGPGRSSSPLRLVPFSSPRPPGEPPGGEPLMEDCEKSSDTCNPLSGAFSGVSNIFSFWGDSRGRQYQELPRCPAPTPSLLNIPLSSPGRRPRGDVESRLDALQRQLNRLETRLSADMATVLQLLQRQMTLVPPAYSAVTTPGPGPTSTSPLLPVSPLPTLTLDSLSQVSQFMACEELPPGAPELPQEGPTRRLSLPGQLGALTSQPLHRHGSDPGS

This experiment addresses human ether-à-go-go-related gene (hERG) potassium channel (human, UniProt Q12809). Put plainly: primary screen, population patch clamp on CHO cells stably expressing hERG.
For the molecule `COCC(C)n1c(COc2ccccc2F)nnc1SCc1c(C)noc1C` (stereo not drawn), the “hERG current change (%, negative = inhibition) at 1uM” value is listed as 9.31%. On to `c1ccc(-c2nnc3sc(CN4CCc5ccccc54)cn23)cc1`, for which the “hERG current change (%, negative = inhibition) at 1uM” value is 2.4%. The result for `O=C(COC(=O)c1ccccc1NC(=O)c1ccco1)Nc1ncc(Cl)cc1Cl` reads 6.49%; that for `COc1ccc(NC(=O)c2cccnc2Nc2ccccc2)cc1`, 1.75%; that for `CCCn1c(SCC(=O)N(C2CCCCC2)C2CCS(=O)(=O)C2)n[nH]c1=O` (stereo not drawn), 2.2%.

As to `O=C1c2ccccc2C(=O)N1CCCCN(C(=O)c1cc([N+](=O)[O-])ccc1Cl)c1ccc(Cl)cc1`, the “hERG current change (%, negative = inhibition) at 1uM” value is recorded as 5.14%.

Take `O=C(c1cccs1)n1cc(C(=S)N2CCOCC2)c2ccccc21`: the “hERG current change (%, negative = inhibition) at 1uM” value came out at 0.607%. The result for `CCN(CC)CC1CCCCN1CC(=O)N1c2ccccc2C(=O)Nc2cccnc21` (stereo not drawn) reads 18.1%. For `COc1ccc(C(C)=O)cc1CSc1nnc(-c2ccccc2O)n1-c1ccccc1` the value was -14.1%. For `CCCCCc1ccc(S(=O)(=O)Nc2cc(C)ccn2)cc1` the value was 10.8%; for `O=C(O)/C=C/c1cn(-c2ccccc2)nc1-c1cc2ccccc2o1`, 12.4%. Take `CCOc1ccc(NC(=NCc2ccc3c(c2)OCO3)SC2CC(=O)N(c3ccc(OCC)cc3)C2=O)cc1` (stereo not drawn): the “hERG current change (%, negative = inhibition) at 1uM” value was 3.91%. For `O=C(N/N=C/c1ccc2c(c1)OCO2)C(O)c1ccccc1` (stereo not drawn) the value was 10.1%; for `Nc1ccc(N2CCN(Cc3ccccc3Cl)CC2)c(Cl)c1`, 5.3%; for `O=C(CC1SC(N2CCCC2)=NC1=O)Nc1ccc(C(=O)NCCc2ccc(F)cc2)cc1` (stereo not drawn), 7.77%. For `CC(=O)c1c(COC(=O)c2cccc(C)c2)nc2ccccc2[n+]1[O-]` the value was 11.3%.

Regarding `CSc1ccc(NC(=O)N2CC=C(n3c(=O)[nH]c4ccccc43)CC2)cc1`, the “hERG current change (%, negative = inhibition) at 1uM” value was -2.13%. For `Cc1cc(OCC(=O)N(Cc2ccccc2)C2CCS(=O)(=O)C2)ccc1Cl` (stereo not drawn) the value was 18.8%.

On to `COc1ccc(C(=O)C2CCCN(Cc3cnc(N4CCCC4)s3)C2)cc1OC` (stereo not drawn), for which the “hERG current change (%, negative = inhibition) at 1uM” value was -15.8%. For `CCOc1nc(SC(C(C)=O)C(=O)Nc2ccccc2)nc(N(C)C)n1` (stereo not drawn) the value was -5.02%. `Cc1ccccc1OCC(O)CN1CCN(c2ccc(Cl)cc2)CC1` (stereo not drawn): the “hERG current change (%, negative = inhibition) at 1uM” value was -58.2%.

For the molecule `O=C(CO/N=C/c1ccccc1OC(F)F)NCc1ccco1`, the “hERG current change (%, negative = inhibition) at 1uM” value was determined as 4.42%. For `Nc1[nH]n2c(=O)c3c(nc2c1N=Nc1ccc(Cl)cc1)CCCC3` the value was -2.44%; for `CC1CCCN(C(=S)Nc2ccc(S(=O)(=O)N3CCCCC3)cc2)C1` (stereo not drawn), 8.61%; for `CC(C#N)(NC(=O)COC(=O)c1ccccc1NCCO)C1CC1` (stereo not drawn), 11.6%.

Turning to `COCCn1c(SCC(=O)Nc2cc(C(C)(C)C)nn2-c2ccccc2)nnc1-c1ccncc1`, the “hERG current change (%, negative = inhibition) at 1uM” value is listed as -11.5%. Consider `CCOC(=O)N1c2ccccc2Sc2ccccc21`, for which the “hERG current change (%, negative = inhibition) at 1uM” value worked out at 10.5%.

As to `CCOC(=O)C1CCN(C(=O)CS(=O)Cc2nc(-c3ccc(C)cc3)oc2C)CC1` (stereo not drawn), the “hERG current change (%, negative = inhibition) at 1uM” value is 18%. Consider `O=C(NC1CCS(=O)(=O)C1)c1ccc(-c2ccc(Br)cc2)o1` (stereo not drawn), for which the “hERG current change (%, negative = inhibition) at 1uM” value was -2.34%. The result for `Cc1cc(NC(=O)CSc2ccc3nnc(-c4cccnc4)n3n2)no1` reads 11.1%; that for `N#CCCSCc1ccc2oc(C(=O)O)cc2c1`, 12.7%. As for `CC(C)[C@H](NC(=O)c1ccco1)C(=O)OCC(=O)N(C)c1ccccc1`, the “hERG current change (%, negative = inhibition) at 1uM” value is reported as 4.31%. For `CCOC(=O)C(C)Oc1ccc(C2NC(=O)NC(C)=C2C(C)=O)cc1Br` (stereo not drawn) the value was 4.32%; for `C[N+](C)(C)CCCCCCCCCC[N+](C)(C)C.[Br-]`, 7.97%. In the case of `O=C(CCNS(=O)(=O)c1ccc2c(c1)CCC(=O)N2)Nc1ccc2c(c1)OCCO2`, the “hERG current change (%, negative = inhibition) at 1uM” value was determined as 5.34%. For `COc1ccc([N+](=O)[O-])cc1NC(=O)C1C2C=CC(C2)C1C(=O)O` (stereo not drawn) the value was 6.24%; for `O=C1C(C=NCC2CCCO2)=C(O)c2ccccc21` (stereo not drawn), 2.24%.

As for `CC(=O)C(Cc1ccccc1)NC(=O)COC(=O)CCN1C(=O)C2CC=CCC2C1=O` (stereo not drawn), the “hERG current change (%, negative = inhibition) at 1uM” value was 15.6%. Turning to `C=CCOc1ccc(C(=O)/C=C2/C(=O)Nc3ccccc32)cc1`, the “hERG current change (%, negative = inhibition) at 1uM” value stood at 7.9%. In the case of `Cn1c(CSCc2ccc(F)cc2)nnc1SCC(=O)Nc1nccs1`, the “hERG current change (%, negative = inhibition) at 1uM” value turned out to be 1.32%. Consider `COC(=O)Nc1nncs1`, for which the “hERG current change (%, negative = inhibition) at 1uM” value was found to be 10.2%. The result for `C/C(=C\C(=O)c1cccnc1)Nc1ccc(C(=O)O)cc1` reads 14.3%; that for `O=C(NC1CCCC1)c1ccc2nc[nH]c2c1`, 5.07%. For `COc1ccc(S(=O)(=O)N2CCCCC2)cc1NC(=O)C1CC(=O)N(c2ccc3c(c2)OCCO3)C1` (stereo not drawn) the value was 2.32%; for `CCN(C(=O)COC(=O)c1cccs1)c1c(N)n(Cc2ccccc2)c(=O)[nH]c1=O`, 18.7%; for `COc1cc(C(=O)NCc2nnc(SCC(=O)Nc3nc4ccc(C)cc4s3)o2)cc(OC)c1OC`, 9.61%.

`CC1(C(=O)NC2CCCCCCC2)CC1(Cl)Cl` (stereo not drawn): the “hERG current change (%, negative = inhibition) at 1uM” value was 2.6%.

Take `Cc1ccc(C)c(NC(=O)c2cnccn2)c1`: the “hERG current change (%, negative = inhibition) at 1uM” value stood at 15%.

In the case of `COc1ccc(N2C(=O)NC(=O)C2=O)cc1`, the “hERG current change (%, negative = inhibition) at 1uM” value is 6.15%. As to `CC1(C)CC(=O)C(C=NCCCN2CCCC2=O)=C(O)C1`, the “hERG current change (%, negative = inhibition) at 1uM” value turned out to be 6.9%.

As to `CCCc1nc(SC2CCCC2)c2c(=O)n(C)c(=O)n(C)c2n1`, the “hERG current change (%, negative = inhibition) at 1uM” value is listed as 11.2%.

As for `CC(=O)N1N=C(c2ccccc2)CC1c1ccccc1[N+](=O)[O-]` (stereo not drawn), the “hERG current change (%, negative = inhibition) at 1uM” value came out at 8.43%.

As to `Cn1c(-c2cccc(Br)c2)n[nH]c1=O`, the “hERG current change (%, negative = inhibition) at 1uM” value was 11.1%. Turning to `CCCN1CCC(NC(=O)Nc2ccc(Br)cc2)CC1`, the “hERG current change (%, negative = inhibition) at 1uM” value is recorded as 11.5%. For `O=C(NCc1ccncc1)C(=O)NCC(c1ccccc1)c1ccccc1` the value was -7.42%. Turning to `CCCCCOc1ccc(C(=O)N(Cc2ccco2)C2CCS(=O)(=O)C2)cc1` (stereo not drawn), the “hERG current change (%, negative = inhibition) at 1uM” value was determined as 13.4%. Take `O=C(Nc1ccc(Cl)cc1)Nc1ccccn1`: the “hERG current change (%, negative = inhibition) at 1uM” value was determined as 10.7%.
